Among the data in patent US5763430A, “Method of treating a viral infection by administering a steroid compound” (priority 1995, dated 1998) are hematological profile values, retold here.

For the series, the system named is L1210 lymphoblastic leukemia cells. As to the kind of experiment: mouse model of leukemia. The format is in vivo.

As to `CC(C)[C@@H](CC[C@@H](C)[C@H]1CC[C@H]2[C@@H]3[C@H](O)C[C@H]4C[C@@H](NCCCNCCCCNCCCN)CC[C@]4(C)[C@H]3CC[C@]12C)OS(=O)(=O)O` [Compound 1436], the hematological profile entry is given as “near normal hematocrit, with evidence of a robust granulocyte count”.
